Whole data set: some 2,300 sequences, median “median log2 fold change of GCK-ALFA target abundance (FLAG IP / Myc IP barcode read proportion)” near 0.095, cut for the lowest 2% near -0.47. Some of the results follow.
B1: LC3A_28_1110 (protein)
chain: MDPEEKNEEALKEAKEAAKKGEPAVITIHVTSSDTEEDIEKTIETLKEIAELLKDVKDAAIIVDIDGKIPQEHLDKLAKEAEEIEKKYPNITVIIALDEN
B2: LC3A_78_2083 (protein)
chain: MKVIIVVDGEEAKEEAEKIKEKLKDADEIIVVELEELEEALEKVKDAEEIEVIIIAPTLDKVEEAIEKVKEFFKDRKMSEIIEIDEETGLYIGIVIIEKK
B3: LC3A_28_1130 (protein)
chain: SEADAIIAQAEAQTAAGIAAGEDVYVDLTITGVLTEEETRRIAAAIREQAKKAAAKGKVYIVITFDKLENAAQADLMADAADEIEAEYPNVSVIIALPED
B4: LC3A_free_39_2220 (protein)
chain: MREELEELVERIAEKSGLDLEEVRERLEELQEVGGLTEEQMLEIARELLEAVEAGADAREILERALEIAKELKAQGKTPEEIAKEILELIRDARNLVPLD
B5: LC3A_28_926 (protein)
chain: MTKEEVIEEIEETAEEAIESGEEAHIEVDIDSSMTKEEAEEVMEKVEEKVKELSEKGIKVLITVDLDNVSQEVEDIVVERLEEIEEEYPLVSSIIALDEE
B6: LC3A_3_1800 (protein)
chain: AEEKIAALLAALREAGKSEETIAAVREAAELLAERGFERALETFIAEMRELLDAPDELLLELAEEVLRRLRTEDLSEEELIEYIRELARLARNEAEIEEL
B7: LC3A_127_172 (protein)
chain: EKEELLEKLEELLEKLSEELSKENYDLEEIEKLTEEAIEVAKKLLELDPSFEPALKTLEEIKKIIEEMKKADEAKKEELKEHALLLVEGALIEVLSLRLK
B8: LC3A_132_235 (protein)
chain: QEEKYKEIREKLEELLEEARKNIDDLEKVQELVKQIQALLDEAKKELSLEKFIELAEEVAERLDELAEEAEAAGKEEVASLLENASLYADGLAIEAELKL
B9: LC3A_23_634 (protein)
chain: MYRLEIEIDLLGKKEDVLKAVEELKEHIEEVAEEEGVEIEELEVEIEEINDPEGTTTYARINVVLRGETKEKLQAVADAIIDKVEELGVSHIISVDIEKL
B10: LC3A_28_952 (protein)
chain: MSLEERLKKALEEAKKAAEAGEPAVITITVPGNATEEDIKKVIETLEEIAEILKDVEGAAIIIDVEAGVKEEHINKLADKAEEIEEKYPNVTVIIALDED
B11: LC3A_3_1402 (protein)
chain: FEEIKKEAEAFLKAAGASPEVIAAANEVLEELEKRGYLEAAKTFVEELKKLKDASDEILLDFLNEVLDYLKSNDSSEEEVVKKIKELATIAKNEHEIEEL
B12: LC3A_28_1131 (protein)
chain: SEADEIIAKAKEQVEAGIAAGEDIYVDLTIKGKMTKEETERVAEAIREEAKRGAAKGKVYIVITFDKNENAEQADLMADKADEIEAEYPNVSVIIALPEE
B13: LC3A_147_462 (protein)
chain: KIYEVTLDVLVKNLTEEIKKFFEELAEEIKKEVPNAKVELEFIQDPENPNETLVRLTVTVKTKEDAEKILDIVVEKLDEFEKKFGDQIVASMISVEEIEE
B14: LC3A_59_2020 (protein)
chain: SEEIEEYREKMRANIDDIDAFTATVREALEKFKDDPEKVKEILKAAMDVVVEELGADKEEAEKVLEEMLKILEEEKDKEKAIEKIVDLIRDLLLLTPIEE
B15: LC3A_28_1014 (protein)
chain: SHMEERVAALIAEIEAALAKGEYVVATLTITPEDSLEEVKAAMERVGKAALEAAKKGIVDVVVDLEKGVSQEKLDAVMEAADELEKKAPKLNVVIALEEE
B16: LC3A_free_39_2262 (protein)
chain: SEAERAAALAALRALAAQTSPEVRAAVLRLGDLLADDPELLRRLRDLLEAAIAKGPEVVAIFGAEAAEAVARIEAGEPRERAVEELLKLAEAAIEIEEID
B17: LC3A_55_2010 (protein)
chain: MKVNIVIDIDEKTGEITELEVYVDGAKEKILAKLKELGKELAAEIFEKAVAAPLDEKRMAELIKKYGAEAVKEAINTLIEVIKSTEGVDLNVIEEIDDNS
B18: LC3A_102_147 (protein)
chain: SPVEEIEKLKKEALEEGKKIAEKLAKEDPEKAKEILKLLEEGINAIAESAISEVEHGFEDLVALDKAEEALETLKKLGAEEGVALLEEYEEKAKEIVEKA
B19: LC3A_147_488 (protein)
chain: AEVDVDVIVKSEEAAEELKKKVEEIVKEMKEKGVNVELEIEVEELEPGVYYVRIKIKVKEKTQEEAKKAANEIVKKIDEIIEELKDEVLAALISIEETEK

What follows are binders tested against MAP1LC3A, Q9H492 (assay: median log2 fold change of GCK-ALFA target abundance (FLAG IP / Myc IP barcode read proportion) (log2 ratio); each designed protein is fused to an ALFA-tag nanobody in HEK293 cells to bring the named protein to FLAG-tagged glucokinase (GCK); Myc marks an untargeted standard; higher = target protein stabilised (more abundant)). Settings: target protein: 3xFLAG-MCP-GCK-ALFA reporter; HEK293 landing pad (RPLP).
Procedure, shortened: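 The readout is target abundance, the per-binder median log2 ratio of FLAG to Myc barcode read proportions. It came from HEK293 landing-pad cells carrying a recombined ALFA-nanobody-fused binder library, induced with 2 μg mL^−1 doxycycline and transfected with a plasmid for a FLAG-tagged target and a Myc-tagged standard. After 48 h, lysates were immunoprecipitated with anti-FLAG and anti-Myc, and circular RNA barcodes were reverse transcribed, amplified and sequenced. Each barcode needed a proportion of at least 10^−7 in both replicates and each binder at least 3 barcodes per replicate, a pseudocount of 10^−6 was added, and the replicates were pooled.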

Row | Binder | median log2 fold change
1 | B1 | 0.0413
2 | B2 | 0.257
3 | B3 | -0.26
4 | B4 | 0.312
5 | B5 | -0.244
6 | B6 | 0.197
7 | B7 | 0.145
8 | B8 | 0.122
9 | B9 | 0.231
10 | B10 | 0.0656
11 | B11 | 0.318
12 | B12 | -0.224
13 | B13 | 0.0765
14 | B14 | -0.571
15 | B15 | -0.297
16 | B16 | 0.24
17 | B17 | 0.434
18 | B18 | 0.259
19 | B19 | 0.00167

Reference: the supplement of paper PMC12632987
